Where “and” joins values, the source holds several entries; their conditions need not be identical. Identical values can stand only once. Out of some 16,000 compounds screened, about 40 (0.2%) were called active. Another 1% or so got no clear call; they are omitted. Calls follow the shape of the dose curve; as a rule, active = well fitted activation curve with a large enough effect; inconclusive = small, poorly fitted or top-dose-only effect, or another doubt; inactive = no such curve, though single readings can be large or run the other way. This is one part of the list.
% is scaled to controls: 0 for no effect and ±100 for the full control effect.

Sequence of UniProt Q8WZA2 (Q8WZA2 whole entry, looked up): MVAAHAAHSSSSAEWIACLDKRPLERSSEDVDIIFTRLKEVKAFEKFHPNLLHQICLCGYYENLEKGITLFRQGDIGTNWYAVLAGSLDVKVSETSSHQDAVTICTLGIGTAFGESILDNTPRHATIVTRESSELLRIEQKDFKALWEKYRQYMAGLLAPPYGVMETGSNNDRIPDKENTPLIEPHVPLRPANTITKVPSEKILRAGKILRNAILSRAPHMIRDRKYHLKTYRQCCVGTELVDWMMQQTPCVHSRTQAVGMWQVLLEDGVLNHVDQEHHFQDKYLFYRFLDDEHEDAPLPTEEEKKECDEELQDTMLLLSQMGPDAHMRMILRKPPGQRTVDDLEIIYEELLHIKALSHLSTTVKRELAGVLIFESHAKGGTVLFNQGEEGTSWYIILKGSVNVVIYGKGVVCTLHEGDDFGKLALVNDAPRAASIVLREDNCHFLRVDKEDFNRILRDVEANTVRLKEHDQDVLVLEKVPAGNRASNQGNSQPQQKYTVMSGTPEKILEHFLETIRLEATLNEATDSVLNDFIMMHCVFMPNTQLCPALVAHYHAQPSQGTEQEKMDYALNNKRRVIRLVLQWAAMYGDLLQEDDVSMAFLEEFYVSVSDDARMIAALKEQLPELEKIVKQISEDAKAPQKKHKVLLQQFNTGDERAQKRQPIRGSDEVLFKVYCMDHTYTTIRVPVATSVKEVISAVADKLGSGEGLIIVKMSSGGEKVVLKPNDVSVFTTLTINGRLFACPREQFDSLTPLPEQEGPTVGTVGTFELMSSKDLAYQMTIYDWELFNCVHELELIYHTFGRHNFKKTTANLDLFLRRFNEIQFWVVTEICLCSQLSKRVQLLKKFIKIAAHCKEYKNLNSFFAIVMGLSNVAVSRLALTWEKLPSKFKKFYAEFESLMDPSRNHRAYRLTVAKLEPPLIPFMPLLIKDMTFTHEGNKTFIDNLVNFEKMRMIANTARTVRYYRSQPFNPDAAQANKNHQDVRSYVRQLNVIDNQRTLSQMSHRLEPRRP

This assay deals with Rap guanine nucleotide exchange factor 4 (Homo sapiens) (UniProt Q8WZA2). Briefly: Validation qHTS for agonist of cAMP-regulated guanine nucleotide exchange factor 4 (EPAC2).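 Also: exchange makes BODIPY-GDP fluorescence drop when released from Rap1B; series mostly up to about 150 µM.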 The settings on record: EPAC2 Rap1B BODIPY-GDP exchange, fluorescence; activation: hits give high values. Summed up:
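Signal normalized against 6.5 mM cAMP as agonist control. Mix of EPAC2 (100 nM), RAP1B-BODIPY-GDP (250 nM) and GDP (50 uM) was read kinetically at 480/540 nm, every 5 min over 30 min, after 5 min room-temperature incubation with compound.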
Regarding `CN1CCC(=C2c3ccccc3C=Cc3ccccc32)CC1`, the activation is inactive: -11% and inactive: -2.27% and inactive: -28.7%.

As for `FC(F)(F)c1ccccc1-c1cc(NCc2cccs2)ncn1`, the activation was inactive: -2%.

As for `COCC(=O)N1CCC[C@@]2(CCN(C(c3ccccc3)c3ccccc3)C2)C1`, the activation was inactive: -20.7%.

`NCC(O)C1CCCCCCC1` (stereo unspecified): the activation was inactive: -5.69%.

Consider `CC(C)c1c(C(=O)N2CCN(CCO)CC2)cnn1-c1nccc(-c2cccs2)n1`, for which the activation is inactive: 4.19%.

On to `Cc1noc(C)c1C(=O)N1CCC[C@@]2(CCN(Cc3cc(C(F)(F)F)cc(C(F)(F)F)c3)C2)C1`, for which the activation was inactive: -35.3%.

As to `O=S1(=O)CCOC[C@H](CC2CCCCC2)N1Cc1ccc(Cl)cc1`, the activation is inactive: 4.49%.

For `COC(=O)[C@@H](N)CSC/C=C(\C)CC/C=C(\C)CCC=C(C)C`, the activation is inactive: -26.7%.

For the compound `O=c1c(-c2cccs2)nc2cncnc2n1Cc1ccc(F)cc1`, the activation is inactive: -3.43%.

In the case of `COc1ccc2c(=O)c(OC)c(-c3ccccc3)oc2c1`, the activation is inactive: -8.66%.

Regarding `C=CCN1C[C@H](C(=O)N(CCCN(C)C)C(=O)NCC)C[C@@H]2c3cccc4[nH]cc(c34)C[C@H]21`, the activation is inactive: 17.3%.

For `CCCCCCCCCCCCC/C=C/[C@@H](O)[C@H](CO)NC(=O)CCCCCCC`, the activation was inactive: -5.81%.

Take `O=S1(=O)CCO[C@H]2CCCC[C@@H]2N1Cc1ccc(Cl)cc1`: the activation was inactive: -30.6%.

As for `COC(=O)[C@H](Cc1ccccc1)N(Cc1ccc(C)cc1)S(C)(=O)=O`, the activation was inactive: -0.116%.

In the case of `COc1ccc(-c2cc(=O)c3ccccc3o2)cc1`, the activation was inactive: -9.34%.

As to `COc1ccc(-n2c(=O)c(-c3ccccc3)nc3cnc(N4CCNCC4)nc32)cc1`, the activation was inactive: -7.48%.

Turning to `CCOC(=O)C1=C(C)NC(C)=C(C(=O)OC)[C@H]1c1cccc([N+](=O)[O-])c1`, the activation is inactive: -10.1%.

Take `CN1CCN(c2ncc3nc(-c4cccs4)c(=O)n(C[C@H]4CCCO4)c3n2)CC1`: the activation is inactive: -46.2%.

On to `Cc1cc(-c2ccc(N=Nc3ccc4c(S(=O)(=O)O)cc(S(=O)(=O)O)c(N)c4c3O)c(C)c2)ccc1N=Nc1ccc2c(S(=O)(=O)O)cc(S(=O)(=O)O)c(N)c2c1O`, for which the activation is inactive: -11% and inactive: -22.1% and inactive: -18.9%.

`Cc1cc(C)cc(C(=O)C[n+]2cccc(Br)c2)c1`: the activation is inactive: -4.26%.

In the case of `CCNc1ncc2nc(-c3ccc(OC)cc3)c(=O)n(C[C@H]3CCCO3)c2n1`, the activation was inactive: -3.92%.

Consider `O=C(c1cnccn1)N1CCC2(CCCN(c3ccncc3)C2)CC1`, for which the activation is inactive: -5.98%.

Consider `COc1ccc2c(c1OC)C(Cc1ccccc1)N1CCc3cc4c(cc3C1=C2)OCO4` (stereo unspecified), for which the activation is inactive: -1.39%.

Regarding `CC(C)(C=O)Cc1cc(C(C)(C)C)c(O)c(C(C)(C)C)c1`, the activation is inactive: -8.72% and inactive: -13.8%.

In the case of `CN(C)c1ccc(/C=C/c2ccnc3ccc(F)cc23)cc1`, the activation is inactive: -16.6%.

Turning to `CC(C)(CO)[C@@H](O)C(=O)NCCC(=O)NCCSSCCNC(=O)CCNC(=O)[C@H](O)C(C)(C)CO`, the activation was inactive: 1.45%.

Turning to `COC(=O)c1c(OCC2CCCN(C)C2)cc(=O)n2c1CCN(Cc1ccc(OC)c(O)c1)CC2` (stereo unspecified), the activation is inactive: -17.4%.

`O=C(Nc1cccc(F)c1)N1CC2(CCN(C(=O)c3cnccn3)CC2)C1`: the activation was inactive: 7.07%.

With `O=C(NC[C@@H]1CCCN2CCCC[C@H]12)c1cnn(-c2nccc(-c3cc4ccccc4o3)n2)c1C1CC1`, the activation was inactive: -10.2%.

On to `COC1=C[C@@H](C)C2CC3OC(=O)C[C@H]4C(C)=C(OC)C(=O)C([C@@]2(C)C1=O)[C@@]34C` (stereo partly specified), for which the activation was inactive: 1.25%.

On to `COC(=O)CC1C(C)(C)C(OC(C)=O)C2CC3=C4CC(=O)OC(c5ccoc5)[C@]4(C)CCC3[C@@]1(C)C2=O` (stereo partly specified), for which the activation is inactive: -12.7%.

Turning to `CS(=O)(=O)Nc1cccc(-c2ccc3ncnc(Nc4ccc(F)cc4)c3c2)c1`, the activation is inactive: -3.79%.

As for `CC(=O)[C@H]1CCC2C3CC=C4C[C@@H](OS(=O)(=O)O)CC[C@]4(C)C3CC[C@@]21C` (stereo partly specified), the activation is inactive: 19.6%.

On to `COc1ccccc1-c1nc(NCc2cccs2)c2ccccc2n1`, for which the activation is inactive: -11.5%.

Regarding `O=C1C[C@@H]2c3c(cccc3CN1Cc1ccccc1Br)C[C@@H](O)[C@H]2O`, the activation was inactive: -17.7%.

On to `COc1ccc(-c2nc3cnc(N4CCOCC4)nc3n(-c3ccccc3)c2=O)cc1`, for which the activation is inactive: 1.46%.

For the compound `COc1ccc(CN(C)CCn2cc(C(=O)N3CCSCC3)nn2)cc1C`, the activation is inactive: -13.3%.

On to `C=C1C(=CC=C2CCC[C@@]3(C)[C@@H]2CC[C@H]3[C@H](C)CCCC(C)C)C[C@@H](O)C[C@@H]1O`, for which the activation is inactive: -69.8%.

Consider `c1cncc(-c2cc(-n3ccnc3)ncn2)c1`, for which the activation is inactive: 6.2%.

On to `CNC1CCCN(c2c(F)cc3c(=O)c(C(=O)O)cn(C4CC4)c3c2OC)C1` (stereo unspecified), for which the activation is inactive: -16.7%.

On to `CC(=O)c1ccc(C(=O)N2CCc3c(cnc(C)c3CNC(=O)c3ccc4c(c3)OCO4)C2)s1`, for which the activation is inactive: 3.79%.

Consider `CC(CN(C)C)CN1c2ccccc2S(=O)(=O)c2ccccc21` (stereo unspecified), for which the activation was inactive: -6.28%.

`CC(C)CN1CCC(=O)N([C@H](COc2ccccc2)Cc2ccccc2)CC1`: the activation is inactive: -31.4%.

`COc1ccccc1-c1nc(NCc2cnc(C)cn2)c2ccccc2n1`: the activation is inactive: -13.1%.

For the compound `C=C[C@@H](C)N(Cc1ccc(OC)cc1)S(=O)(=O)N(Cc1ccccc1)[C@H](C=C)C(C)C`, the activation was inactive: -15.6%.

Turning to `CC1OC(OC2C(CO)OC(OC3C(CO)OC(O)C(O)C3O)C(O)C2O)C(O)C(O)C1NC1C=C(CO)C(O)C(O)C1O` (stereo unspecified), the activation is inactive: -10.7%.

As for `COc1ccc2[nH]cc(CCNc3ncnc4ccc(-c5ccccc5OC)cc34)c2c1`, the activation was inactive: 4.26%.

Consider `COc1cccc(-c2nc(NCCNC(C)=O)c3ccccc3n2)c1`, for which the activation was inactive: 6.43%.

As for `COc1ccccc1CNc1ncnc2ccc(-c3cccc(NS(C)(=O)=O)c3)cc12`, the activation is inactive: 1.44%.

Turning to `Oc1ccc(/C=C\c2cc(O)cc(O)c2)cc1`, the activation is inactive: -10.8%.

Take `COc1cccc(Nc2ncc3nc(-c4cccs4)c(=O)n(Cc4cccs4)c3n2)c1`: the activation was inactive: -35%.
